# Source: PubChem BioAssay AID2546 (National Center for Advancing Translational Sciences (NCATS), 2010)
# The campaign covered roughly 310,000 compounds. About 11,000 (3.5%) were called active. The shares of active, inactive and inconclusive entries below differ from those in the screen. Calls follow the shape of the dose curve; as a rule, active = well fitted inhibition curve with a large enough effect; inconclusive = small, poorly fitted or top-dose-only effect, or effect the other way; inactive = flat fitted curve, though single readings scatter. No potency is given beside an inconclusive call; the fits are too rough.
# Assay: VP16 counterscreen qHTS for inhibitors of ROR gamma transcriptional activity;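 also: Gal4-VP16 expression switched on by copper sulfate through the metallothionein promoter; nearly all actives have a fitted effect of over 50% in size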
# Details: Drosophila S2 Gal4-VP16 UAS-luciferase, luminescence, 20 h; activity, negative = inhibition: at 53.6 µM (top of the series)
# % is scaled to controls: 0 for no effect and ±100 for the full control effect; potency is read from the fitted curve at half-maximal effect; tags tell the direction and shape of the fitted curve.
SMILES,Potency,"activity, negative = inhibition"
Cn1cc([N+](=O)[O-])c(C(=O)Nc2ccc3c(c2)OCCO3)n1,"inconclusive [inhibitor, single point]",–
Cc1cc(=O)[nH]c(SCC(=O)Nc2nc3ccccc3s2)n1,–,inactive: 6.2%
COC(=O)c1ccc(OC(=O)c2ccncc2)cc1O,–,inactive: -0.287%
Cc1ccc(-n2cc(CN3CCN(Cc4nccn4C)CC3)c(-c3ccc(F)cc3)n2)cc1,"inconclusive [inhibitor, single point]",–
Cc1ccc(-c2nnc(Nc3ccc4c(c3)nc(C)n4C)c3ccccc23)cc1,"inconclusive [inhibitor, single point]",–
CCCOC(=O)/C(C(N)=NCc1ccccc1)=C(\O)OCCC,"inconclusive [activator, single point]",–
CC(=O)N(NC(=O)c1ccccc1Cl)C1CC(=O)N(c2ccc(C)cc2)C1=O (stereo not given),–,inactive: -6.81%
Cc1ccc(NCC(=O)c2ccc(C)cc2)cc1,"inconclusive [inhibitor, partial curve]",–
COc1ccccc1/C=C/C(=O)NCC(=O)n1nc(C)cc1C,–,inactive: -3.55%
CC(=O)c1cccc(OCCCOc2cccc3cccnc23)c1,–,inactive: -0.932%
CCN(CC)c1ccc(NC(=S)NC(=O)Cc2ccccc2)cc1,active: 2.51 µM,–
CCNc1nc(NCC)nc(N/N=C(\C)c2ccc(OC)cc2)n1,"inconclusive [inhibitor, single point]",–
Cc1c(Cc2ccccc2)c(NCCCO)n2c(nc3ccccc32)c1C#N,–,inactive: -6.96%
O=C(NN=C1CCCC1)c1ccc(O)cc1O,active: 11.2 µM,–
Cc1c(C#N)c(NC(=O)CCl)n(Cc2ccc(F)cc2)c1C,"inconclusive [inhibitor, single point]",–
NC(=O)c1ccc2nc(NC(=O)c3ccc(N)cc3)sc2c1,–,inactive: -14.1%
CCCN1CCN(C(=S)Nc2ccc([N+](=O)[O-])cc2)CC1,–,inactive: -0.576%
COc1ccc(N2C(=O)CC(N3CCC(O)(c4ccc(Br)cc4)CC3)C2=O)cc1 (stereo not given),–,inactive: 2.97%
CCOc1ccc(C(=O)NC2CCN(C(=O)Nc3ccccc3OC)CC2)cc1,"inconclusive [inhibitor, single point]",–
CC1CCN(c2ccc([N+](=O)[O-])cc2C(=O)NCC2CCCO2)CC1 (stereo not given),–,inactive: 1.01%
CN(Cc1nc2ccccc2n1C)c1ccccc1,"inconclusive [inhibitor, single point]",–
CCOC(=O)CN1CC23C=CC(O2)C(C(=O)Nc2ccc4c(c2)OCO4)C3C1=O (stereo not given),"inconclusive [activator, partial curve, poor fit]",–
CCc1ccccc1-n1nnnc1SCC(=O)Nc1ccc(N2CCN(C)CC2)cc1,–,inactive: -4.9%
CCNC(=O)COc1ccc(Br)cc1Cl,–,inactive: 28.5%
Cc1ccc(NC(=S)NCC23C=CC(O2)C2C(=O)N(c4ccc(C)cc4)C(=O)C23)cc1 (stereo not given),active: 14.1 µM,–
C/C(=N\NC(N)=O)c1c(F)cccc1F,–,inactive: 5.67%
O=C(Cn1cncn1)N/N=C/c1ccccc1O,"inconclusive [inhibitor, single point]",–

SMILES,Potency,"activity, negative = inhibition"
N#CC1=C(N)C(C#N)(C#N)[C@H](c2ccoc2)[C@H]2CN(Cc3ccccc3)CC=C12,–,inactive: 12.1%
CSc1cccc(NC(=O)CN2C(=O)c3ccccc3S2(=O)=O)c1,active: 12.6 µM,–
N/C(=N\OC(=O)c1ccc(Cl)c([N+](=O)[O-])c1)c1ccccc1,–,inactive: -3.09%
COCCNC(=O)COC(=O)/C=C/c1c(C)nn(Cc2ccc(Cl)cc2Cl)c1Cl,"inconclusive [inhibitor, single point]",–
COc1ccc2c(c1)C(=O)N(c1ccc(C)cc1C)C(=O)C2,"inconclusive [inhibitor, single point]",–
FC(F)(F)c1cnc(COc2ccc(Cl)cc2Cl)c(Cl)c1,–,inactive: 2.83%
N/C(=N\OCc1ccccc1)c1nonc1N,"inconclusive [inhibitor, single point]",–
Cc1ccc(N2CCN(CC(O)COc3ccccc3)CC2)cc1 (stereo not given),–,inactive: -4.46%
Cc1ccc(C(=O)NC(=C(Cl)Cl)S(=O)(=O)c2ccc(Cl)cc2)cc1,"inconclusive [inhibitor, single point]",–
CCCc1[nH][nH]c(=O)c1C(c1ccc(Cl)cc1)C(C#N)C#N (stereo not given),–,inactive: -26.4%
Cc1cccc(NC(=S)N2CCC(c3nc4ccccc4o3)CC2)c1C,"inconclusive [inhibitor, single point]",–
Oc1ccc(-n2nnnc2SCc2ccccc2Br)cc1,–,inactive: 1.34%
Cc1cccc(-n2c(-c3csc(C)c3)n[nH]c2=S)c1,active: 8.91 µM,–
COCCCNS(=O)(=O)c1ccc2[nH]c3c(c2c1)CCCCC3,–,inactive: -7.28%
COc1ccc(CNC(=S)Nc2ccc(OC)cc2)cc1,"inconclusive [inhibitor, single point]",–
c1ccc(C2c3[nH]c4ccccc4c3CCN2Cc2cccn2-c2ccccn2)nc1 (stereo not given),–,inactive: 0.453%
CCOC(=O)c1ccc(NC(=O)c2nc(S(=O)(=O)Cc3ccccc3)ncc2Cl)cc1,active: 4.47 µM,–
CS(=O)(=O)N(Cc1ccc(C(=O)NN=C2CCCCCC2)cc1)c1ccccc1,"inconclusive [activator, single point]",–
O=C(N/N=C/c1ccc(Cl)cc1Cl)c1cccc(F)c1,"inconclusive [inhibitor, single point]",–
CN(C)c1ccc(/C=N/Nc2nncc3ccccc23)cc1,"inconclusive [inhibitor, single point]",–
CNC(=S)N/N=C/c1cc(C)ccc1C,active: 5.01 µM,–
COc1ccccc1-c1n[nH]c(=S)n1-c1ccccc1,"inconclusive [inhibitor, single point]",–
Cc1cc(N2CCC(C)CC2)nc(SCC(=O)c2ccccc2)n1,–,inactive: -12.3%
CCn1c(=O)c(C(=O)NCc2ccc3c(c2)OCO3)c(O)c2ccccc21,"inconclusive [inhibitor, single point]",–
COC(=O)c1ccc(NC(=S)NN2CCCCC2c2cccnc2)cc1 (stereo not given),–,inactive: -4.12%
Cc1ccc(/C=N/NC(=O)c2cccc(S(=O)(=O)Nc3ccccc3Cl)c2)s1,active: 5.01 µM,–
C=C(C)CCC1(C)NC(=O)N(c2ccccc2)N1 (stereo not given),–,inactive: -0.0514%

SMILES,Potency,"activity, negative = inhibition"
Cc1cc(C)cc(-n2c(SC(C)C(=O)NCc3ccc4c(c3)OCO4)nc3ccccc3c2=O)c1 (stereo not given),"inconclusive [activator, single point]",–
COc1ccc(/C(O)=C2/C(=O)C(=O)N(Cc3ccco3)C2c2cccs2)cc1 (stereo not given),–,inactive: 0.801%
Clc1ccc2nc(-c3ccc4c(c3)OCO4)cn2c1,active: 8.91 µM,–
CCCCc1ccc(NC(=S)N2CCCC(CO)C2)cc1 (stereo not given),"inconclusive [inhibitor, single point]",–
O=C(NNc1c(Cl)cccc1Cl)c1sccc1Cl,"inconclusive [inhibitor, partial curve, poor fit]",–
C=C(C)COc1ccc(-c2[nH]ncc2Oc2ccccc2OC)c(O)c1,"inconclusive [inhibitor, single point]",–
COc1ccc(OC)c(C2C=C(C34CC5CC(CC(C5)C3)C4)NC(=S)N2)c1 (stereo not given),active: 3.16 µM,–
Cc1nc(OCc2ccccc2)c2ccccc2n1,"inconclusive [inhibitor, single point]",–
COC(=O)CN1C(=O)S/C(=C/c2ccc(N3CCCCC3)o2)C1=O,active: 5.01 µM,–
Cc1ccc(S(=O)(=O)N2CCC(C(=O)Nc3nnc(-c4ccc(F)cc4)s3)CC2)cc1,–,inactive: -1.05%
S=C(Nc1ccccc1Cl)NC1CCCCCC1,active: 10 µM,–
CC(C)(C)c1ccc(C(=O)c2c[nH]c(C(=O)NCc3cccs3)c2)cc1,"inconclusive [inhibitor, single point]",–
COc1ccc(C(=O)Nn2c(SCc3cccc([N+](=O)[O-])c3)nc3ccccc3c2=O)cc1,"inconclusive [inhibitor, partial curve]",–
Cc1ccc(C(=O)C2CCNCC2)cc1,"inconclusive [inhibitor, single point]",–
COc1cc(C(=O)N/N=C/c2cccc(Oc3ccccc3)c2)ccc1O,"inconclusive [inhibitor, full curve]",–
[2H]C(CCOS(N)(=O)=O)c1ccc(C(C)(C)C)cc1 (stereo not given),"inconclusive [inhibitor, partial curve]",–
O=C(Nc1ccc(OCC(=O)N2CCOCC2)cc1)c1ccccc1F,"inconclusive [inhibitor, partial curve]",–
COc1cc(C)ccc1OCCOCCOc1c(C)cc(C)cc1Br,–,inactive: -7.83%
COc1ccc(-c2noc(CCC(=O)NCC3CCCO3)n2)cc1 (stereo not given),"inconclusive [inhibitor, partial curve]",–
Cc1nn(Cc2c(F)c(F)c(F)c(F)c2F)c(C)c1NC(=O)c1cccc(COc2ccccc2Cl)c1,–,inactive: -4.67%
Cc1cc(C)n(-c2nc(SCC(=O)N3CCCC3)c3c4c(sc3n2)CCCC4)n1,active: 10 µM,–
Cn1cc(CCC(=O)N2CCCC(C(=O)c3ccc(C(C)(C)C)cc3)C2)cn1 (stereo not given),"inconclusive [inhibitor, single point]",–
ClCc1nnc(-c2ccccc2)o1,"inconclusive [inhibitor, single point]",–
CCc1nnc(N2C(=N)SCC2=O)s1,active: 12.6 µM,–
COc1ccc(/C=C/C(=O)c2ccc[nH]2)c(OC)c1OC,"inconclusive [activator, partial curve]",–
Cc1cccc(OCC(=O)NS(=O)(=O)c2ccc(Br)cc2)c1,–,inactive: -5.81%
